# The other results are listed elsewhere or left out.
# B1: Tap1 (Sordaria macrospora), Q50IV4 (protein)
# chain: MSHHHHHHHHYTLHLRLINDTSDTLTLVEQTSWWGKNTIWSQVRSTGVHVLSMAASGSSGMLRFQTSKGDFFAVAVGVHNYKRWCDVLVDTADEAPLTKLHPKYYDDKDAKYQALWAQASEFEAKSKSGKTVRIKFYQADGNVLRATVEYL
# Key:
# Test in all cases: glycan array binding signal (z-score within array); higher = stronger binding
# Conditions in all cases: glycan notation: IUPAC condensed, linker removed
# [1] = molecular target: Fuc(a1-2)[GalNAc(a1-3)]Gal(b1-4)GlcNAc(b1-3)GalNAc
# In short: (§1)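 Arrays were curated from the Consortium for Functional Glycomics database, 3228 in total, and kept only where the protein sequence was available. Binding is expressed as a within-array Z-score. This score was averaged across arrays of the same protein sequence at different concentrations or buffers and across linkers, and negative values can be read as non-binding.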
# [2] = molecular target: Fuc(a1-2)[GalNAc(a1-3)]Gal(b1-4)[Fuc(a1-3)]GlcNAc
# In short: as §1
# [3] = molecular target: Fuc(a1-2)[GalNAc(a1-3)]Gal(b1-4)[Fuc(a1-3)]GlcNAc(b1-3)GalNAc
# In short: as §1
# [4] = molecular target: Fuc(a1-2)[GalNAc(a1-4)]Gal(b1-4)GlcNAc
# In short: as §1
# [5] = molecular target: Fuc(a1-2)[GalNAc(b1-3)]Gal
# In short: as §1
# Fuc(a1-3)GlcNAc = molecular target: Fuc(a1-3)GlcNAc
# In short: as §1
# [6] = molecular target: Fuc(a1-3)[Gal(b1-4)]Glc6S
# In short: as §1
# [7] = molecular target: Fuc(a1-3)[Gal(b1-4)]GlcNAc
# In short: as §1
# [8] = molecular target: Fuc(a1-3)[Gal(b1-4)]GlcNAc(b1-2)Man(a1-3)[Fuc(a1-3)[Gal(b1-4)]GlcNAc(b1-2)Man(a1-6)]Man(b1-4)GlcNAc(b1-4)GlcNAc
# In short: as §1
# [9] = molecular target: Fuc(a1-3)[Gal(b1-4)]GlcNAc(b1-2)Man(a1-3)[Fuc(a1-3)[Gal(b1-4)]GlcNAc(b1-2)Man(a1-6)]Man(b1-4)GlcNAc(b1-4)[Fuc(a1-6)]GlcNAc
# In short: as §1
# [10] = molecular target: Fuc(a1-3)[Gal(b1-4)]GlcNAc(b1-3)Gal(b1-3)[Fuc(a1-4)]GlcNAc
# In short: as §1
# [11] = molecular target: Fuc(a1-3)[Gal(b1-4)]GlcNAc(b1-3)GalNAc
# In short: as §1
# [12] = molecular target: Fuc(a1-3)[Gal(b1-4)]GlcNAc(b1-4)Gal(b1-4)[Fuc(a1-3)]GlcNAc
# In short: as §1
# [13] = molecular target: Fuc(a1-3)[Gal(b1-4)]GlcNAc(b1-4)Gal(b1-4)[Fuc(a1-3)]GlcNAc(b1-4)Gal(b1-4)[Fuc(a1-3)]GlcNAc
# In short: as §1
# [14] = molecular target: Fuc(a1-3)[Gal(b1-4)]GlcNAc(b1-6)[Gal(b1-3)GlcNAc(b1-3)]Gal(b1-4)Glc
# In short: as §1
# [15] = molecular target: Fuc(a1-3)[Gal(b1-4)]GlcNAc6S
# In short: as §1
# [16] = molecular target: Fuc(a1-3)[Gal3S(b1-4)]GlcNAc
# In short: as §1
# [17] = molecular target: Fuc(a1-3)[Gal3S(b1-4)]GlcNAc6S
# In short: as §1
# [18] = molecular target: Fuc(a1-3)[GalNAc(b1-4)]GlcNAc
# In short: as §1
# Fuc(a1-4)GlcNAc = molecular target: Fuc(a1-4)GlcNAc
# In short: as §1
# Fuc(b1-3)GlcNAc = molecular target: Fuc(b1-3)GlcNAc
# In short: as §1
# Gal(a1-2)Gal = molecular target: Gal(a1-2)Gal
# In short: as §1
# Gal(a1-3)Gal = molecular target: Gal(a1-3)Gal
# In short: as §1
# Gal(a1-3)Gal(b1-3)GlcNAc = molecular target: Gal(a1-3)Gal(b1-3)GlcNAc
# In short: as §1
# [19] = molecular target: Gal(a1-3)Gal(b1-3)GlcNAc(b1-2)Man(a1-3)[Gal(a1-3)Gal(b1-3)GlcNAc(b1-2)Man(a1-6)]Man(b1-4)GlcNAc(b1-4)GlcNAc
# In short: as §1
# [20] = molecular target: Gal(a1-3)Gal(b1-3)GlcNAc(b1-3)GalNAc
# In short: as §1
# [21] = molecular target: Gal(a1-3)Gal(b1-3)[Fuc(a1-4)]GlcNAc(b1-2)Man(a1-3)[Gal(a1-3)Gal(b1-3)[Fuc(a1-4)]GlcNAc(b1-2)Man(a1-6)]Man(b1-4)GlcNAc(b1-4)GlcNAc
# In short: as §1
# Gal(a1-3)Gal(b1-4)Glc = molecular target: Gal(a1-3)Gal(b1-4)Glc
# In short: as §1
# Gal(a1-3)Gal(b1-4)GlcNAc = molecular target: Gal(a1-3)Gal(b1-4)GlcNAc
# In short: as §1
# [22] = molecular target: Gal(a1-3)Gal(b1-4)GlcNAc(b1-3)GalNAc
# In short: as §1
# [23] = molecular target: Gal(a1-3)Gal(b1-4)[Fuc(a1-3)]GlcNAc
# In short: as §1
# [24] = molecular target: Gal(a1-3)Gal(b1-4)[Fuc(a1-3)]GlcNAc(b1-2)Man(a1-3)[Gal(a1-3)Gal(b1-4)[Fuc(a1-3)]GlcNAc(b1-2)Man(a1-6)]Man(b1-4)GlcNAc(b1-4)GlcNAc
# In short: as §1
# Gal(a1-3)GalNAc = molecular target: Gal(a1-3)GalNAc
# In short: as §1
# [25] = molecular target: Gal(a1-3)[Gal(a1-4)]Gal(b1-4)GlcNAc
# In short: as §1
# [26] = molecular target: Gal(a1-4)Gal(b1-3)GlcNAc(b1-2)Man(a1-3)[Gal(a1-4)Gal(b1-3)GlcNAc(b1-2)Man(a1-6)]Man(b1-4)GlcNAc(b1-4)GlcNAc
# In short: as §1
# Gal(a1-4)Gal(b1-4)Glc = molecular target: Gal(a1-4)Gal(b1-4)Glc
# In short: as §1
# Gal(a1-4)Gal(b1-4)GlcNAc = molecular target: Gal(a1-4)Gal(b1-4)GlcNAc
# In short: as §1
# [27] = molecular target: Gal(a1-4)Gal(b1-4)GlcNAc(b1-2)Man(a1-3)[Gal(a1-4)Gal(b1-4)GlcNAc(b1-2)Man(a1-6)]Man(b1-4)GlcNAc(b1-4)GlcNAc
# In short: as §1
# [28] = molecular target: Gal(a1-4)Gal(b1-4)GlcNAc(b1-3)Gal(b1-4)Glc
# In short: as §1
# Gal(a1-4)GlcNAc = molecular target: Gal(a1-4)GlcNAc
# In short: as §1
# Gal(a1-6)Glc = molecular target: Gal(a1-6)Glc
# In short: as §1
# Gal(b1-2)Gal = molecular target: Gal(b1-2)Gal
# In short: as §1
# Gal(b1-3)Gal = molecular target: Gal(b1-3)Gal
# In short: as §1
# Gal(b1-3)Gal(b1-4)GlcNAc = molecular target: Gal(b1-3)Gal(b1-4)GlcNAc
# In short: as §1
# [29] = molecular target: Gal(b1-3)Gal(b1-4)GlcNAc(b1-2)Man(a1-3)[Gal(b1-3)Gal(b1-4)GlcNAc(b1-2)Man(a1-6)]Man(b1-4)GlcNAc(b1-4)GlcNAc
# In short: as §1
binder,measurement,setting,value
B1,glycan array binding signal (z-score),[1],-0.212
same,glycan array binding signal (z-score),[2],-0.098
same,glycan array binding signal (z-score),[3],-0.082
same,glycan array binding signal (z-score),[4],-0.231
same,glycan array binding signal (z-score),[5],-0.228
same,glycan array binding signal (z-score),Fuc(a1-3)GlcNAc,-0.209
same,glycan array binding signal (z-score),[6],-0.162
same,glycan array binding signal (z-score),[7],-0.243
same,glycan array binding signal (z-score),[8],-0.225
same,glycan array binding signal (z-score),[9],-0.189
same,glycan array binding signal (z-score),[10],-0.232
same,glycan array binding signal (z-score),[11],-0.177
same,glycan array binding signal (z-score),[12],-0.208
same,glycan array binding signal (z-score),[13],-0.239
same,glycan array binding signal (z-score),[14],-0.235
same,glycan array binding signal (z-score),[15],-0.148
same,glycan array binding signal (z-score),[16],-0.221
same,glycan array binding signal (z-score),[17],-0.127
same,glycan array binding signal (z-score),[18],-0.23
same,glycan array binding signal (z-score),Fuc(a1-4)GlcNAc,-0.244
same,glycan array binding signal (z-score),Fuc(b1-3)GlcNAc,-0.241
same,glycan array binding signal (z-score),Gal(a1-2)Gal,-0.248
same,glycan array binding signal (z-score),Gal(a1-3)Gal,-0.245
same,glycan array binding signal (z-score),Gal(a1-3)Gal(b1-3)GlcNAc,-0.246
same,glycan array binding signal (z-score),[19],-0.108
same,glycan array binding signal (z-score),[20],0.205
same,glycan array binding signal (z-score),[21],-0.165
same,glycan array binding signal (z-score),Gal(a1-3)Gal(b1-4)Glc,-0.247
same,glycan array binding signal (z-score),Gal(a1-3)Gal(b1-4)GlcNAc,-0.251
same,glycan array binding signal (z-score),[22],0.024
same,glycan array binding signal (z-score),[23],-0.245
same,glycan array binding signal (z-score),[24],-0.182
same,glycan array binding signal (z-score),Gal(a1-3)GalNAc,-0.09
same,glycan array binding signal (z-score),[25],-0.23
same,glycan array binding signal (z-score),[26],-0.221
same,glycan array binding signal (z-score),Gal(a1-4)Gal(b1-4)Glc,-0.22
same,glycan array binding signal (z-score),Gal(a1-4)Gal(b1-4)GlcNAc,-0.214
same,glycan array binding signal (z-score),[27],-0.202
same,glycan array binding signal (z-score),[28],-0.226
same,glycan array binding signal (z-score),Gal(a1-4)GlcNAc,-0.235
same,glycan array binding signal (z-score),Gal(a1-6)Glc,-0.248
same,glycan array binding signal (z-score),Gal(b1-2)Gal,-0.207
same,glycan array binding signal (z-score),Gal(b1-3)Gal,-0.228
same,glycan array binding signal (z-score),Gal(b1-3)Gal(b1-4)GlcNAc,-0.158
same,glycan array binding signal (z-score),[29],-0.225
